# Results taken from PMC5836133.
# Some of the results follow. At the low end of the ranking the order means little.
# Test system: T1, GST-NbGlk1(82-244)
# T1 sequence: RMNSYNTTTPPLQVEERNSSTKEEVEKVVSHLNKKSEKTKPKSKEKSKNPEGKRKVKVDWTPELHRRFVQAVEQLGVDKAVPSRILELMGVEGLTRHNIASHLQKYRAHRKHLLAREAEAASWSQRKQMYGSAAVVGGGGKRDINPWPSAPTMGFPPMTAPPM
# Assay: protein-binding microarray;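 further: rank-based score ranging −0.5 to +0.5 with E above 0.45 taken as significant binding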
# Settings: NbGlk1 is a Golden2-like transcription factor of Nicotiana benthamiana; high values mean tight binding; most listed sequences are background and not binding sites; double strand, one strand shown
row,Sequence,binding signal [E-score]
1,CACTTCGC,-0.059
2,AGTTCTAT,-0.0741
3,AGGCGTGA,-0.0249
4,AACTTCCG,-0.0642
5,AAGATCTC,0.406
6,AGCAGGCC,-0.302
7,AGCTATTC,-0.148
8,ATTAGCAC,-0.0208
9,ACGCTACC,-0.109
10,AAAGTTTC,-0.0739
11,CAAAATCG,0.386
12,ACAGTCTA,0.00924
13,ATTAACCA,-0.0174
14,CAGATTCA,0.293
15,ATACGTAT,0.194
16,AAACCGCT,-0.224
17,ACAACCCT,-0.196
18,ACCCGGCG,-0.243
19,AGAAGTTA,0.0625
20,AATGTGAA,0.182
21,AGGTTCGA,-0.00234
22,CAAACTCC,-0.175
23,ATCTCCAT,0.335
24,AAGAGGGC,-0.243
25,AATATGGC,0.176

row,Sequence,binding signal [E-score]
1,AGGACCAG,-0.295
2,ATAACTAA,-0.0585
3,AGTCTTCC,-0.00747
4,ATACGGGG,-0.0135
5,ACGGCCCC,-0.108
6,ATCGAAGC,0.095
7,ACCTACCT,-0.278
8,ACGGGCAA,-0.0399
9,AATGCGGG,-0.0897
10,ACCTTCAT,0.0193
11,AGGGTGCC,-0.33
12,AGTATTTA,0.0837
13,ACAACTAC,0.101
14,ATCGCGCC,0.283
15,ACGGGGTG,-0.198
16,AAGACTAT,-0.0294
17,ACTACTCT,0.0252
18,AAATCGCG,0.425
19,ACCTCACT,-0.179
20,ACTGGTGG,-0.23
21,ACAAAACC,0.0863
22,AGCCGCGA,-0.00167
23,ACACCGTC,-0.21
24,AGAGGCAG,-0.241
25,ATGAAGGA,0.082

row,Sequence,binding signal [E-score]
1,ATAATAAC,0.129
2,ACGTAAGG,-0.146
3,ACAGGGAA,0.142
4,AGGGGAGG,-0.151
5,ATAGAAAC,-0.0892
6,AATTCAGA,0.186
7,AGTGACAG,-0.071
8,AGCTACAT,-0.0735
9,CACTTTCG,-0.0509
10,AACATTGT,-0.126
11,AACCCTAT,-0.169
12,AGTGCAAT,0.238
13,ACCGATGC,-0.0953
14,ACCAGGAA,-0.0883
15,ACGCGCGG,-0.0389
16,ACACCAAG,-0.162
17,ATTCCTGA,0.169
18,AAAAGAAG,-0.0861
19,AGAATCTG,0.479
20,AAGCTCTG,-0.281
21,CACCTGGC,-0.21
22,AGTGCTAT,-0.00384
23,ACACTTTG,-0.0137
24,ACTCAAAA,0.174
25,ACGAACAC,-0.0229

row,Sequence,binding signal [E-score]
1,ACCCCGCC,-0.221
2,ATATGGCC,-0.0757
3,AAATGGGA,-0.0906
4,AAAGACTC,-0.126
5,ATTCCATA,0.257
6,ACTGAGAT,0.247
7,CACCTCCG,-0.131
8,CAACCTAG,-0.178
9,AAGCGATA,0.157
10,AACACCCA,-0.08
11,AAGACCTA,-0.147
12,AGTGCGCG,-0.0343
13,AATGCCGA,-0.0346
14,AGCTTGAC,-0.215
15,ACAGCAAC,-0.0327
16,AAATCCAC,0.43
17,CAAATGGG,-0.0083
18,ACCAGCAG,-0.202
19,ATGCCGAA,0.0265
20,CACTAGGG,-0.132
21,CAATGGGA,-0.00746
22,AATATTCC,0.341
23,AACTTGTA,0.0657
24,CACTGGCC,-0.223
25,ACCAATCT,0.171

row,Sequence,binding signal [E-score]
1,AATAGTTC,-0.0151
2,ATCCCCGA,0.284
3,AGAGCGCG,-0.0775
4,ATAGTTAG,0.115
5,AGGCCTGG,-0.223
6,CAGACACA,-0.123
7,AGTGTCTG,-0.049
8,ACTGCAGT,-0.102
9,ACCTGCAT,0.0605
10,AACATTTC,0.176
11,AAGGAGGA,-0.205
12,ATCCCCGC,0.2
13,AAGTGAAC,-0.219
14,ACTACAGG,-0.104
15,ACCAGTCG,-0.255
16,ATACCCGC,0.082
17,ACTTGGCG,-0.0276
18,ACTAAGCC,-0.124
19,ATTATTTC,0.219
20,CAGCGTTC,-0.283
21,AATTGATG,-0.00418
22,AATGGTGG,-0.136
23,ACGTGACA,-0.0339
24,ATCGAGCG,0.00861
25,ACTGCCGC,-0.123

row,Sequence,binding signal [E-score]
1,ACTGCTAT,-0.0283
2,ATGCGACC,-0.224
3,ACACGGAC,-0.102
4,AACAGCAG,-0.145
5,CACCCACA,-0.123
6,AGGGGAAT,0.32
7,AACAACCA,-0.191
8,AGAGAAAT,0.241
9,ATCGTCTC,0.173
10,AAGGCCGT,-0.302
11,AACAAGTA,0.00994
12,ATTGCAGC,0.12
13,AATTAGTA,0.109
14,CAAATGAG,0.003
15,ATCTGGAC,0.346
16,ATATGTCA,0.14
17,AGGCCTGA,-0.195
18,ACTAAACG,0.0337
19,ATCTTCAG,0.3
20,ACCCGAAC,-0.221
21,AGCTCTAG,-0.145
22,AGGGCGAA,-0.209
23,ATCGTCGA,0.221
24,ACAGGAAT,0.217
25,CACTTGCG,-0.105

row,Sequence,binding signal [E-score]
1,AGTCGACA,0.0557
2,AACCTAAT,0.0548
3,CAAGAAGA,-0.0827
4,AGCTTGGG,-0.206
5,AGCGCGAG,-0.0785
6,ATACCAGG,-0.0165
7,ATCCTCAG,0.231
8,ACGTAACG,0.0139
9,ATGTTAGA,0.121
10,CAAAAAAC,0.182
11,ACGCCTCC,-0.188
12,ACGAAGTA,0.00245
13,AGGCACGG,-0.196
14,ACTTATCA,-0.0734
15,ATGTGACG,-0.121
16,AGGATAGG,-0.0549
17,CAACCCGG,-0.178
18,AACATTAA,0.101
19,AGGCTGTG,-0.255
20,ACAAACCC,-0.171
21,AGTAAAGG,-0.0993
22,AATCACGA,0.339
23,AATTAGCG,-0.0295
24,AAGAACAT,0.00421
25,AGCCCGTA,-0.156

row,Sequence,binding signal [E-score]
1,AGATCAAC,0.106
2,AACTACTT,0.0621
3,CAGATACG,0.391
4,AACCGGTC,-0.168
5,ATATTACA,0.281
6,ATTTCACA,0.304
7,CAAGTATG,0.101
8,AATGACGG,-0.0554
9,AGATCAAT,0.175
10,AGCAGGAC,-0.165
11,AGGTCGAT,-0.119
12,AATTAACC,-0.0987
13,ATTTGACA,0.157
14,ATGAGTAC,0.0213
15,AGAGTATA,0.159
16,AAGTGGTG,-0.047
17,AAGACGCA,-0.104
18,CACTTTTA,0.0879
19,AGTCAGTG,-0.0774
20,CAAGAAAA,-0.0381
21,AAGAGATT,0.4
22,ACCGCGCT,-0.109
23,ACCTCCCC,-0.154
24,ACAACTGT,-0.0865
25,AGTCGGAG,-0.168

row,Sequence,binding signal [E-score]
1,ATCTGTCC,0.12
2,AAGGCGGA,-0.0824
3,CAAAATGG,-0.0703
4,ATGCAGCG,-0.0864
5,AGCCACCA,-0.137
6,ATCACTTG,0.125
7,AGCTTTCG,-0.154
8,ACGATGCT,0.00773
9,CAATGCAG,0.0004
10,AATCCCGT,0.366
11,AGCCGTCA,-0.173
12,AATTGCCG,0.0396
13,AATCAACA,0.259
14,CACGTCGG,-0.277
15,AACGCGAC,-0.104
16,ACCCGGGA,-0.302
17,ATGATTAG,0.0672
18,ACAAATGC,-0.167
19,AGGGTTTA,-0.113
20,CAATAGAG,0.0743
21,ACTTCTTA,0.0387
22,ATGCCTTC,-0.102
23,ATGATGCG,-0.0231
24,AACTCTGC,-0.015
25,AGGACACG,-0.211

row,Sequence,binding signal [E-score]
1,AGAGTGTA,0.0506
2,ACCCGGCC,-0.185
3,ACGATTAA,-0.00945
4,ACGAGTGC,-0.146
5,AATAGTAT,-0.048
6,ACGGATCT,0.265
7,ACTTTTCG,0.0842
8,ATAGAGAG,-0.0132
9,AACCCTAG,-0.0641
10,ATGGGTGA,-0.0382
11,ACGAATGG,-0.151
12,ACCCCGTG,-0.145
13,AAATGTCC,-0.152
14,ACTAGACA,-0.00354
15,AGACTATC,-0.0535
16,ACGTGCAG,-0.0862
17,AAACCCGA,-0.104
18,ATAATAAG,0.093
19,AGGCAAAT,0.238
20,CAGCCGAA,-0.0499
21,ATAAACCG,-0.128
22,CACATCAG,-0.0143
23,ACGAAGCG,-0.122
24,AGGCTACG,-0.175
25,AGGAGACG,-0.256

row,Sequence,binding signal [E-score]
1,AGCATATA,0.256
2,AATGGGGG,-0.154
3,AAGGGAGC,-0.104
4,ATTTAGTA,0.182
5,ACCTCGGC,-0.258
6,ACCTCGGG,-0.115
7,AATGGTGA,0.0927
8,AAATTCGT,0.192
9,CACTATCC,0.136
10,ATCGTCAC,0.0447
11,AGGATACC,0.2
12,AGGAGTGA,-0.113
13,ACGTCTTC,-0.0544
14,AAAACAAA,0.0918
15,CAGCCCAC,-0.322
16,AAGTACAG,0.0433
17,CAACGCAC,-0.106
18,AGCTGTTA,-0.177
19,AAACCTAT,-0.0462
20,AATCGGCT,0.167
21,AGATTCAA,0.186
22,ACTCGAAG,-0.1
23,AAACAGTA,0.0525
24,AGTATTGA,0.0844
25,AGCCCAAG,-0.192

row,Sequence,binding signal [E-score]
1,AGAGAATC,0.479
2,ACATGAAC,-0.073
3,ATGATGCA,-0.0354
4,ACTGATCC,-0.00118
5,AACCTACG,-0.124
6,ACCGTGAC,-0.197
7,AACGGCCA,-0.205
8,AATGCGAC,-0.183
9,ATACTTAC,0.139
10,AGGCAGGG,-0.256
11,ACTTACAA,0.0442
12,AGGGTGTC,-0.163
13,AATTAGAA,0.131
14,AACGACTT,0.00665
15,CAATCGCC,0.124
16,AATTGGAA,0.0238
17,AAGTGCTC,-0.206
18,ATTGTCAC,0.057
19,AAATTCAG,0.208
20,ATCTGCAT,0.31
21,AGGATGCC,-0.189
22,AGTTGCTG,0.092
23,ACGGCTTG,-0.22
24,ATCCTCAA,0.322
25,AATCTGGT,0.443

row,Sequence,binding signal [E-score]
1,ATACCTCC,-0.151
2,ACATGATC,0.126
3,AAGATCAA,0.245
4,AATCGCGT,0.352
5,AAAATATA,0.295
6,CACAAGGC,-0.297
7,CAGATTAG,0.0861
8,ATGGTATA,0.123
9,CAGCCTAG,-0.258
10,ACCTATAA,-0.0138
11,ACGCCTAG,-0.0881
12,AAATGGAG,-0.129
13,AAAGACAG,0.00442
14,ATCCTAAG,0.145
15,ATGGTCGA,-0.148
16,AGACGTTC,-0.149
17,CACTTATG,0.0623
18,ACCAAAGA,0.208
19,ATCGGAAG,0.15
20,CACCGAGG,-0.184
21,ACAAACGG,-0.117
22,ACGGTAAG,-0.0887
23,ATAGTGGA,0.119
24,AAATCACC,0.333
25,AGAAAGTC,-0.0744

row,Sequence,binding signal [E-score]
1,AGCTCCTC,-0.286
2,AAGTCTAG,-0.074
3,AAGTAGTC,-0.00185
4,AGAGTCCT,-0.22
5,AGGAAACT,-0.227
6,ATCTGGAA,0.351
7,AAGTGGGT,-0.189
8,ATGGATGC,-0.104
9,AAGTCTAA,-0.0366
10,CACGCGTC,-0.0216
11,ACAAAGCA,0.0816
12,CAGATCAC,0.171
13,ACTGTTGG,-0.0845
14,ATAATGGC,-0.0522
15,CAATCAGG,0.294
16,ACAACCCC,-0.139
17,AGAGGAAG,-0.314
18,ATTAATCA,0.119
19,ACCCAGTG,-0.134
